{"source": "PubChem BioAssay AID624417", "about": "(National Center for Advancing Translational Sciences (NCATS), 2012)", "note": "In all, about 410,000 compounds went through this assay and about 6,400 (1.6%) were called active. This list was built around the results that the source calls inconclusive (neither active nor inactive); the mix of calls is not that of the screen. Calls follow the shape of the dose curve; as a rule, active = well fitted inhibition curve with a large enough effect; inconclusive = small, poorly fitted or top-dose-only effect; inactive = no such curve, though single readings can be large or run the other way. No potency is given beside an inconclusive call; the fits are too rough. Potency is read from the fitted curve at half-maximal effect; tags tell the direction and shape of the fitted curve.", "data": [{"target": "Glucagon-like peptide 1 receptor (Homo sapiens) (UniProt P43220)", "sequence (P43220 whole entry, looked up)": "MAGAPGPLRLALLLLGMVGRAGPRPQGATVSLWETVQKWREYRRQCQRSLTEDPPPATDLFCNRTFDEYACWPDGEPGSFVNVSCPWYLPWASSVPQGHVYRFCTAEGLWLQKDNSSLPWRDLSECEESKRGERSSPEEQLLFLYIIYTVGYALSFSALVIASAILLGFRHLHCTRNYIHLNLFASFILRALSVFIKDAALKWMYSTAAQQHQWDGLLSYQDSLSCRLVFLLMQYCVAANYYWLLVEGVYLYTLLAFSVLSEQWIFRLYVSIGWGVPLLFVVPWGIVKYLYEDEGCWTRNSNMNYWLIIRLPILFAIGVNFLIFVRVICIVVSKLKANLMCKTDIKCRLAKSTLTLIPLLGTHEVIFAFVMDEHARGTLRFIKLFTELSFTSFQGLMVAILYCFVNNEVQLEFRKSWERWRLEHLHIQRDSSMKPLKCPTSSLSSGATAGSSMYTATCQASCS", "experiment": "qHTS of GLP-1 Receptor Inverse Agonists (Inhibition Mode); also: nearly all actives have a fitted effect of over 55% in size", "conditions": "HEK293 GLP-1R CRE-luciferase, luminescence, 24 h, GLP-1R form is constitutively active; series mostly up to 38.3 µM", "procedure,_shortened": "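Constitutively active GLP-1R drives a cAMP-responsive luciferase in stably transfected HEK293 cells; test compounds are added after overnight (12 h) attachment and left 24 hr, and signal loss in luminescence marks inhibition.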", "values": [{"smiles": "CCCC(C(=O)NCc1cccc(Cl)c1)N1Cc2ccccc2C1=O", "note": "(configuration not stated)", "Potency": "inconclusive [inhibitor, single point]"}, {"smiles": "O=C(OCc1nc2ccccc2s1)c1cccc(S(=O)(=O)N2CCOCC2)c1", "Potency": "inconclusive [inhibitor, partial curve]"}, {"smiles": "CN(Cc1ccc(Cl)cc1Cl)C(=O)c1cc(=O)c2ccccc2o1", "Potency": "inconclusive [inhibitor, partial curve, poor fit]"}, {"smiles": "c1ccc(Cn2nnc3c(N4CCCCCC4)ncnc32)cc1", "Potency": "inconclusive [inhibitor, single point]"}, {"smiles": "Cc1cccc(C(=O)OCC(=O)N(C)C(c2ccccc2)c2ccccc2)c1[N+](=O)[O-]", "Potency": "inconclusive [inhibitor, single point]"}, {"smiles": "O=C(Nc1ccc(OC(F)(F)F)cc1)c1ccc(S(=O)(=O)N2CCOCC2)o1", "Potency": "inconclusive [inhibitor, partial curve, poor fit]"}, {"smiles": "O=c1[nH]c(C2CCN(S(=O)(=O)c3ccc4c(c3)OCCO4)CC2)nc2c1nnn2Cc1c(F)cccc1Cl", "Potency": "inconclusive [inhibitor, single point]"}, {"smiles": "CN(C)C(CNC(=O)c1cc(S(=O)(=O)N(C)Cc2ccccc2)ccc1Cl)c1ccco1", "note": "(configuration not stated)", "Potency": "inconclusive [inhibitor, partial curve, poor fit]"}, {"smiles": "O=C(NC12CC3CC(CC(C3)C1)C2)c1ccc(N2CCNCC2)c([N+](=O)[O-])c1", "Potency": "inconclusive [inhibitor, full curve, poor fit]"}, {"smiles": "COc1ccc(NC(=O)C(CC(C)C)NC(=O)c2ccccc2C)cn1", "note": "(configuration not stated)", "Potency": "inconclusive [inhibitor, single point]"}, {"smiles": "Cc1ccc(C2CCN(C(=O)Nc3ccccc3)C2)cc1", "note": "(configuration not stated)", "Potency": "inconclusive [inhibitor, single point]"}, {"smiles": "CCN(CC)c1nc(-c2cccc(OC)c2O)nc2ccccc12", "Potency": "inconclusive [inhibitor, partial curve, poor fit]"}, {"smiles": "Cc1nc(N2CCCCC2C)c2c(C)c(C(=O)Nc3cccc(C(F)(F)F)c3)sc2n1", "note": "(configuration not stated)", "Potency": "active: 10 µM"}, {"smiles": "N#Cc1ccccc1Cn1c(=O)n(CCCC(=O)NCc2ccc3c(c2)OCO3)c(=O)c2sccc21", "Potency": "inactive"}, {"smiles": "C1=C(c2ccc(-c3ccccc3)cc2)Nc2ncnn2C1c1ccco1", "note": "(configuration not stated)", "Potency": "inactive"}, {"smiles": "Cc1ccc(NC(=O)N2CCCC(c3ccccc3)C2)cc1", "note": "(configuration not stated)", "Potency": "inconclusive [inhibitor, single point]"}, {"smiles": "COc1ccc(N(C(=O)c2ccc(OC)c(OC)c2)S(=O)(=O)c2ccc(Cl)cc2)cc1", "Potency": "inconclusive [inhibitor, partial curve, poor fit]"}, {"smiles": "CCN(CC(=O)Nc1ccccc1Br)Cc1nc2ccccc2c(=O)[nH]1", "Potency": "inactive"}, {"smiles": "O=C(NCc1ccco1)c1cc2sccc2n1Cc1ccc(F)cc1", "Potency": "inconclusive [inhibitor, single point]"}, {"smiles": "Cc1ccc(NC(=O)Cn2c(O)c(N=NC(N)=S)c3ccccc32)cc1", "Potency": "inconclusive [inhibitor, partial curve, poor fit]"}, {"smiles": "COc1ccc(C(=O)Nc2nnc(-c3ccco3)s2)cc1", "Potency": "inconclusive [inhibitor, partial curve]"}, {"smiles": "COc1ccc(OC)c(/C=C/c2ccnc3ccccc23)c1", "Potency": "inconclusive [inhibitor, partial curve]"}, {"smiles": "Nc1cc2nc3ccccc3oc-2cc1=O", "Potency": "inactive"}, {"smiles": "Cc1ccnc(NC(=O)CCc2c[nH]c3ccccc23)c1", "Potency": "inconclusive [inhibitor, partial curve, poor fit]"}, {"smiles": "CC1CCN(S(=O)(=O)c2ccc(Cl)cc2)CC1", "Potency": "inactive"}, {"smiles": "CN(CC(=O)NC1CCN(Cc2ccccc2)CC1)S(=O)(=O)c1ccc(Cl)s1", "Potency": "inconclusive [inhibitor, full curve]"}, {"smiles": "Nc1ccc(Oc2cc(N)cc(Oc3ccccc3)c2)cc1", "Potency": "inconclusive [inhibitor, full curve, poor fit]"}, {"smiles": "CCc1ccccc1NC(=O)CN(C)C(=O)CSc1nn(-c2ccc(F)cc2)c(=S)s1", "Potency": "inconclusive [inhibitor, single point]"}, {"smiles": "O=[N+]([O-])c1cccc(N/N=C/c2cccc3ccccc23)c1", "Potency": "inconclusive [inhibitor, partial curve, poor fit]"}, {"smiles": "CCCCC(NC(=O)c1ccccc1)C(=O)OCC(=O)N1c2ccccc2Sc2ccccc21", "note": "(configuration not stated)", "Potency": "inconclusive [inhibitor, partial curve, poor fit]"}, {"smiles": "COc1ccc(CCNC(=O)c2nnn(-c3ccc4c(c3)OCCO4)c2N)cc1OC", "Potency": "inconclusive [inhibitor, full curve, poor fit]"}, {"smiles": "CNCCCOc1cccc(OC(C)C)c1", "Potency": "inconclusive [inhibitor, single point]"}, {"smiles": "C[C@H]1CN([C@@H](C)CO)S(=O)(=O)c2ccc(C#CC(C)(C)O)cc2O[C@H]1CN(C)Cc1ccccc1", "Potency": "inconclusive [inhibitor, single point]"}, {"smiles": "CCc1ccc(NCc2cc3cc4c(cc3n(CC(=O)Nc3cccc(OC)c3)c2=O)OCO4)cc1", "Potency": "inactive"}, {"smiles": "COc1ccc(-c2cc(=O)oc3cc(OC(C)C(=O)Nc4ccc(CN5CCOCC5)cc4)ccc23)cc1", "note": "(configuration not stated)", "Potency": "inconclusive [inhibitor, single point]"}, {"smiles": "COc1ccc(-c2nc(C#N)c(NCc3ccccc3Cl)o2)cc1", "Potency": "inactive"}, {"smiles": "COc1ccc(/C=C/c2ccc3cccc(O)c3n2)cc1Br", "Potency": "inactive"}, {"smiles": "CCCc1[nH]nc2c1C(c1c(C)nn(-c3ccccc3)c1Cl)C(C#N)=C(N)O2", "note": "(configuration not stated)", "Potency": "inconclusive [inhibitor, single point]"}, {"smiles": "CCc1cccc(C)c1NS(=O)(=O)c1cc2[nH]c(=O)c(=O)[nH]c2cc1C", "Potency": "inactive"}, {"smiles": "O=C(Cn1cc(COc2ccccc2[N+](=O)[O-])nn1)c1ccc(O)cc1", "Potency": "inactive"}, {"smiles": "COc1ccc(-c2coc3c(C(=O)NCc4ccc(OC)c(OC)c4)cccc23)c(C)c1", "Potency": "inconclusive [inhibitor, partial curve, poor fit]"}, {"smiles": "CCN(CC)c1ccc(NC(=O)CCS(=O)(=O)c2cc3c(cc2Cl)NC(=O)CO3)c(C)c1", "Potency": "inactive"}, {"smiles": "CCc1cccc2c(C(=O)CSc3nnc(C4CC4)o3)c[nH]c12", "Potency": "inconclusive [inhibitor, partial curve, poor fit]"}, {"smiles": "COC(=O)c1c(NC(NC(C)=O)C(Cl)(Cl)Cl)sc2c1CCCC2", "note": "(configuration not stated)", "Potency": "inconclusive [inhibitor, single point]"}, {"smiles": "O=C(CSc1nc2ccccc2o1)Nc1cc(C(F)(F)F)ccc1N1CCOCC1", "Potency": "inconclusive [inhibitor, partial curve, poor fit]"}, {"smiles": "CN(CC(=O)Nc1cccc(S(=O)(=O)N2CCOCC2)c1)CC(=O)Nc1ccc(Cl)c(C(F)(F)F)c1", "Potency": "inconclusive [inhibitor, single point]"}, {"smiles": "N#C/C(=C\\c1cn(CCOc2ccccc2)c2ccccc12)C(=O)NCC1CCCO1", "note": "(configuration not stated)", "Potency": "inconclusive [inhibitor, single point]"}, {"smiles": "Cc1ccc(NC(=O)c2nc[nH]c2C(=O)N(C)Cc2ccccc2)cc1", "Potency": "inconclusive [inhibitor, single point]"}, {"smiles": "CCSc1nc2ccccc2n1C(=O)/C=C/c1ccc(OC)c(OC)c1", "Potency": "inconclusive [inhibitor, partial curve, poor fit]"}, {"smiles": "CCc1nc2c(OCc3ccc(Cl)cc3)cccn2c1N(C=O)Cc1ccccc1", "Potency": "inconclusive [inhibitor, partial curve, poor fit]"}, {"smiles": "COC(=O)c1cn(CCOc2ccccc2OC)c2ccccc12", "Potency": "inconclusive [inhibitor, partial curve, poor fit]"}, {"smiles": "CCOc1ccc(C(=S)NC2CCCCC2)cc1OCC", "Potency": "inconclusive [inhibitor, single point]"}, {"smiles": "Fc1ccc(Sc2cc(Cl)c(-c3ccccc3)nn2)cc1", "Potency": "inconclusive [inhibitor, single point]"}, {"smiles": "Cc1cccc(-c2nc3cc(NC(=O)C4CCCO4)ccc3o2)c1", "note": "(configuration not stated)", "Potency": "inconclusive [inhibitor, partial curve, poor fit]"}, {"smiles": "CC(C)(C)NC(=O)C(c1cc2ccccc2o1)n1c(=O)c(-c2ccccc2)nc2ccccc21", "note": "(configuration not stated)", "Potency": "inconclusive [inhibitor, partial curve, poor fit]"}, {"smiles": "Cc1cc(NC(=O)CCC(=O)N(CCC(C)C)C(C(=O)NCC2CCCO2)c2ccccc2C)no1", "note": "(configuration not stated)", "Potency": "inactive"}, {"smiles": "Oc1ccccc1/C=N/Nc1ccnc(SCc2ccccc2)n1", "Potency": "inconclusive [inhibitor, full curve, poor fit]"}, {"smiles": "O=C(NCc1cccnc1)c1ccc(COc2ccc(Cl)cc2)cc1", "Potency": "inconclusive [inhibitor, single point]"}, {"smiles": "Cc1cc2c(cc1NS(=O)(=O)c1ccc(F)cc1)n(C)c(=O)c(=O)n2C", "Potency": "inactive"}, {"smiles": "Fc1cccc(Cc2c(C3CCCCC3)nc3ccc(Cl)cn23)c1", "Potency": "inconclusive [inhibitor, partial curve, poor fit]"}, {"smiles": "CCOc1ccc(CCN2C(=S)N([C@@H](Cc3ccc(O)cc3)CN3CCC[C@@H]3CN3C(=S)NC[C@@H]3Cc3ccccc3)C[C@@H]2Cc2ccc(O)cc2)cc1", "Potency": "inconclusive [inhibitor, single point]"}, {"smiles": "O=C(Nc1ccc(Cl)cc1)C1Cc2c(-c3ccccc3Oc3ccccc3)ccnc2O1", "note": "(configuration not stated)", "Potency": "inconclusive [inhibitor, full curve, poor fit]"}]}]}
